Among all 150,000 compounds or so, about 540 (0.36%) showed an effect of 50% or more. This is one part of the list.
Tested on: Plasmodium falciparum
Test: Primary screen in NF54 nanoGlo assay, in single point, at 2uM, 72h; a lower Z score goes with more inhibition
Format: functional, Erythrocyte
Details: timepoint 72 hour

Compound	% Inhibition [%]	Z score
COc1cccc(OC[C@@H](O)CNC(=O)NCc2nc(C)cc(C)n2)c1	-1	0.2
COc1ccc(S(=O)(=O)c2cn(CC(=O)Nc3ccc(F)cc3)c3nc(C)ccc3c2=O)cc1	-3	0.34
Cc1nc(N(C)C[C@H](O)CO)nc2cc(S(C)(=O)=O)ccc12	1	-0.27
O=C1C2C(Cc3ccc(O)cc3)NC3(C(=O)Nc4c(Cl)cccc43)C2C(=O)N1CC1CCCO1 (centres undefined)	-8	1.05
O=C(COc1ccc2ccccc2c1)N1CC(N2C(=O)C3CC=CCC3C2=O)C1 (centres undefined)	-4	0.46
CN(Cc1ccccc1)C(=O)C1CCN(C2CCN(C(=O)c3cc(Cl)cc(Cl)c3)CC2)CC1	1	-0.13
CCCCN(C)S(=O)(=O)NCc1ccncc1OC[C@H]1CCOC1	-7	1.38
Cc1c(C(=O)Nc2c(C)n(C)n(-c3ccccc3)c2=O)c(-c2ccccc2)nn1-c1ccccc1	-32	3.8
FC(F)(F)c1cccc(Cn2nnnc2N2CCCOCC2)c1	1	-0.11
Cc1n[nH]cc1CNc1ccc(N2CCOCC2)nc1	-11	1.42
O=C(NCc1nnc(C2CC2)o1)c1noc2c1CCc1ccccc1-2	-6	1.01
CCCNC(=O)c1nc(CS(=O)(=O)c2ccccc2)no1	-1	0.24
CC(=O)N(CCN1CCCCC1)[C@H]1CCCN(C(=O)c2ccn(C)n2)C1	-7	1
O=C(N[C@@H]1COC2(CCCCC2)C1)c1cccn2cnnc12	-1	0.09
Cc1n[nH]c(NCC2(C)COC2)c1C#N	-18	2.02
CCc1nc(-c2ccc(-c3noc([C@H]4CC(=O)N(c5ccc(C)cc5)C4)n3)cc2)cs1	-12	1.25
Cc1nnc(Cn2nnc(C(=O)NCCC3CC4CCC3C4)c2C)o1 (centres undefined)	-9	1.06
CC(C)[C@H](CO)NC(=O)NCc1cc(-c2ccccc2Cl)on1	-7	0.83
Cc1cc(C(=O)N(CC2CCN(C3Cc4ccccc4C3)CC2)C[C@H]2CCCO2)nn1C	-22	1.96
COc1ccc(OC)c([C@H](c2cc3c(cc2O)OCO3)N2CCCC2)c1	36	-0.9
Cc1ccsc1CN(Cc1ccccc1)C(=O)CN(C(=O)C1CCCC1)C1CCCCC1	-2	0.35

Compound	% Inhibition [%]	Z score
CC(=O)Nc1cccc(C(=O)N(CCC(=O)N2CCNCC2)CC(C)C)c1	0	-0.04
CCc1noc(C)c1C(=O)N(CCO)Cc1nccn1C	-9	0.82
CC1OCCC1(C)NCCOc1ccccc1 (centres undefined)	0	0.05
Cn1c(=O)c2cn3c(c2n(C)c1=O)[C@@H](c1ccc(F)cc1)Nc1ccccc1-3	4	-0.7
CNC(=O)NCc1cn(Cc2coc(C(C)(C)C)n2)nn1	1	-0.17
C[C@@H]1N[C@@]2(C(=O)Nc3ccccc32)[C@@H]2C(=O)N(c3cccc(Br)c3)C(=O)[C@H]12	-11	1.37
CCCN(CC(=O)NC)S(=O)(=O)c1ccc(Cl)cc1C	-4	0.45
CCc1noc(Cn2ccc(-c3ccsc3)n2)n1	-18	2.02
Cc1ccc2nc(NC(=O)C(=O)c3cccn3Cc3ccc(C)c(C)c3)sc2c1	-14	1.29
COC(=O)c1ccc2c(c1)n(Cc1ncccn1)c(=O)n2C1CCCCC1	-21	2.14
Cc1nc2ccc(NC(=O)COc3cccc4cccnc34)cc2s1	-20	3.79
CC(C)(NCCCN1CCOC1=O)c1nccs1	11	-1.18
C[C@@H](C(=O)Nc1ccc(Cl)cn1)N(C)CCOc1ccccc1	-9	0.79
O=C(NC[C@H]1CCC(=O)N(Cc2ccccc2)CC1)C1CCCC1	-11	1.11
CCCN(C[C@H]1CCOC1)C(=O)Nc1cccc(CC)c1	0	0.05
C=CC[C@]1(CO)CCCN(Cc2ccc3occc3c2)C1	-11	1.74
CCCc1cc(C(=O)N(C)[C@@H](C)c2nccs2)ccn1	-12	1.37
Cn1cnc2c1CCN(C(=O)Cc1ccc3cn[nH]c3c1)C21CCOCC1	-4	0.69
CCN(CCc1nc2ccccc2[nH]1)S(=O)(=O)N1CCCC1	-4	0.6
CCCCN(C)S(=O)(=O)NC1CCN2CCCCC12 (centres undefined)	-12	1.73
CNC(=O)CCNS(=O)(=O)c1cc(N(C)S(C)(=O)=O)c(C)cc1C	2	-0.23

— ChEMBL document CHEMBL4888484, “Replenishing the malaria drug discovery pipeline: Screening and hit evaluation of the MMV Hit Generation Library 1 (HGL1) against asexual blood stage Plasmodium falciparum ,using a nano luciferase reporter read-out” (2022)
